# Measurements published in PubChem BioAssay AID588855 (National Center for Advancing Translational Sciences (NCATS), 2011).
# Values joined by “and” are separate entries in the source; they are usually repeats but may differ in a detail not shown here. Identical values can stand only once. The whole screen tested about 410,000 compounds, of which about 5,000 (1.2%) were called active. Inconclusive results, whose numbers are uncertain, are shown with a selection of clear calls. Calls follow the shape of the dose curve; as a rule, active = well fitted inhibition curve with a large enough effect; inconclusive = small, poorly fitted or top-dose-only effect; inactive = no such curve, though single readings can be large or run the other way. Potencies beside an inconclusive call are fits to weak or partial responses and may not hold up.
# Experiment: qHTS for Inhibitors of TGF-b; also: nearly all actives have a fitted effect of over 65% in size
# Conditions: HepG2 CAGA-GFP TGF-b/SMAD3 reporter, GFP fluorescence, 18 h, TGF-beta stimulated, 500 pg/mL final; series mostly up to 46.1 µM; activity, negative = inhibition: at the top concentration
# Procedure, shortened: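 GFP signal (ex488/em500-530) from TGF-beta-stimulated HEPG2 CAGA-GFP cells, 500 pg/mL final, 18 h at 37 degrees C in DMEM plus 1% FBS, normalized to unstimulated and DMSO-stimulated controls.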
# % is scaled to controls: 0 for no effect and ±100 for the full control effect; potency is read from the fitted curve at half-maximal effect; tags tell the direction and shape of the fitted curve.
Structure (SMILES),"activity, negative = inhibition",Potency
COc1ccc(C(=O)c2ccc(N3CCOCC3)cc2)c(OC)c1,inactive: -1.38%,
CC(C)(C)C1C/C(=C/c2ccccn2)C(=O)/C(=C/c2ccccn2)C1 (configuration not stated),,active: 0.891 µM
Cc1ccc(-n2nc3c(=O)n(CC(=O)NC(C)CCc4ccccc4)nc(C)c3c2C)cc1 (configuration not stated),,"inconclusive: 1.26 µM [inhibitor, full curve]"
O=C(CCCOc1ccccc1)Nc1cccc(S(=O)(=O)N2CCCCC2)c1,,"inconclusive: 17.8 µM [inhibitor, partial curve, poor fit]"
Cc1ccc(S(=O)(=O)N2CCCCC2)cc1C(=O)NCc1ccccn1,,"inconclusive: 11.2 µM [inhibitor, partial curve]"
CCCCn1c(N)c(Sc2ccc(Cl)cc2)c(=O)[nH]c1=O,,"inconclusive: 22.4 µM [inhibitor, single point]"
CN1CCN(CC#CCC2(O)c3ccccc3-c3ccccc32)CC1,,"inconclusive: 2.24 µM [inhibitor, partial curve, poor fit]"
COc1ccc(C2CC(c3ccc(Cl)cc3)=NN2c2ccc(S(N)(=O)=O)cc2)cc1 (configuration not stated),,"inconclusive: 17.8 µM [inhibitor, single point]"
CCCCNC(=O)c1onc(CSc2ccc(F)cc2)c1C(=O)O,,"inconclusive: 3.16 µM [inhibitor, full curve, poor fit]"
O=C(CC1SC2=NCCN2C1=O)Nc1ccccc1 (configuration not stated),inactive: -0.132%,
O=C(C1CCC(CNS(=O)(=O)c2cccs2)CC1)N1CCN(c2ccc(F)cc2)CC1 (configuration not stated),inactive: 2.31%,
CCOC(=O)c1c(NC(=S)NC(C)=O)sc(C)c1C,inactive: -9.39%,
O=C(Nc1nc(-c2ccc(F)cc2)cs1)C1CCN(C(=O)c2ccc(F)cc2)CC1,,"inconclusive: 14.1 µM [inhibitor, partial curve, poor fit]"
CCc1ccccc1NC(=O)Cc1c(C(=O)O)[nH]c2ccc(Cl)cc12,inactive: 10.2%,
COc1ccc(NS(=O)(=O)c2cc(NC(=O)c3cncc(Br)c3)ccc2OC)cc1,inactive: -14.4%,
Cc1ccc(N=N/C(=C\O)C(=O)c2ccc(Cl)cc2)cc1,,"inconclusive: 8.91 µM [inhibitor, partial curve, poor fit]"
O=C(COC(=O)c1ccc(F)c(S(=O)(=O)N2CCOCC2)c1)NCCc1ccccc1,inactive: -8.54%,
Cc1cc(NC(=O)c2sc(Nc3cccc(C(F)(F)F)c3)nc2N)no1,,"inconclusive: 5.62 µM [inhibitor, single point]"
CC(C)CNC(=O)C1=CC(c2ccc3c(c2)OCO3)=NS(=O)(=O)N1C,,"inconclusive: 7.94 µM [inhibitor, partial curve, poor fit]"
CCc1cccc(N=c2c([N+](=O)[O-])nn(-c3ccc(Cl)cc3)n2O)c1,,"inconclusive: 10 µM [inhibitor, partial curve]"
COC(=O)C1=C(C(=O)OC)C(C(=O)OC)C(C(=O)OC)C(C(=O)OC)(C(=O)OC)C(C(=O)OC)=C1C(=O)OC (configuration not stated),inactive: -27.9%,
CC(=O)c1ccc(-c2cnc3c(NC=O)cc(-c4ccc(C(=O)NC5CC5)cc4)cn23)cc1,,"inconclusive: 15.8 µM [inhibitor, single point]"
Cc1cc(-n2c(C)nc3ccccc3c2=O)ccc1NC(=O)c1cccc([N+](=O)[O-])c1,inactive: -29.2%,

Structure (SMILES),"activity, negative = inhibition",Potency
CC1(C(=O)Nc2ccc3c(c2)OCO3)Cc2c(-c3cccc(C(F)(F)F)c3)ccnc2O1 (configuration not stated),,"inconclusive: 15.8 µM [inhibitor, single point]"
c1ccc2c(c1)sc[n+]2CCC1CCCCC1,,"inconclusive: 31.6 µM [inhibitor, single point]"
O=C(Nc1cccc(S(=O)(=O)N2CCOCC2)c1)c1cccc(S(=O)(=O)N2CCCCC2)c1,inactive: -4.83%,
Cc1ccc(OCC(=O)Nc2ccc(C(=O)OCc3cc(=O)n4c(C)csc4n3)cc2)cc1,inactive: -3.33%,
CSc1ccc(C(=O)C2CCCN(C(=O)CCn3cncn3)C2)cc1 (configuration not stated),inactive: -26.1%,
COc1ccc(-c2onc(C)c2C)cc1S(=O)(=O)NC1CCC(C)CC1 (configuration not stated),,"inconclusive: 11.2 µM [inhibitor, partial curve, poor fit]"
COc1ccc(OCC(=O)NC2CCCN(Cc3ccc(Cl)cc3)C2)cc1 (configuration not stated),,"inconclusive: 35.5 µM [inhibitor, single point]"
COc1ccc(N2C(=O)NC3CC2(C)Oc2ccc(Cl)cc23)cc1OC (configuration not stated),inactive: -2.62%,
N/C(COc1ccccc1)=N\NS(=O)(=O)c1ccccc1,,"inconclusive: 0.794 µM [inhibitor, partial curve]"
O=C(NCc1cccc(C(F)(F)F)c1)c1ccc2sc([C@H]3C[C@H](O)[C@@H](CO)O3)nc2c1,inactive: -2.39%,
Cc1ccc(OCCN2CCC2(C)C(=O)NCc2cccc3ccccc23)cc1 (configuration not stated),,"inconclusive: 17.8 µM [inhibitor, single point]"
CCOc1cc(C2c3c(-c4ccccc4O)n[nH]c3C(=O)N2CCc2ccccc2)ccc1O (configuration not stated),,"inconclusive: 35.5 µM [inhibitor, single point]"
CCSC(=Nc1ccccc1)Nc1ccccc1,inactive: 7.39%,
Cc1ccc(NC(=O)C(Cc2ccccc2)NS(=O)(=O)c2cccc3nsnc23)c(C)c1 (configuration not stated),inactive: -10.6%,
CCOc1cc(CNCc2ccccc2)ccc1OCc1ccc(Cl)cc1,,"inconclusive: 15.8 µM [inhibitor, partial curve, poor fit]"
O=C(CN1C(=O)COc2ccc(S(=O)(=O)N3CCOCC3)cc21)Nc1cccc(Cl)c1,,"inconclusive: 35.5 µM [inhibitor, partial curve, poor fit]"
CCN(C(=O)CSc1ncn[nH]1)c1c(N)n(Cc2ccccc2)c(=O)[nH]c1=O,inactive: 8.52%,
O=C1NC(Cc2c[nH]c3ccccc23)C(=O)N1Cc1cccc2ccccc12 (configuration not stated),,"inconclusive: 35.5 µM [inhibitor, single point]"
CC1CCCCN1S(=O)(=O)c1ccc2c(c1)oc(=O)n2CC(=O)Nc1ccc(Cl)cc1 (configuration not stated),,"inconclusive: 5.01 µM [inhibitor, partial curve]"
COc1cc(C2CC(=O)Nc3c2c(=O)nc2c(C)cccn32)cc(OC)c1OC (configuration not stated),,inactive
Cc1ccc(NC(=O)c2ncn(CCCN3CCN(Cc4cccc5ccccc45)CC3)n2)cc1C,,"inconclusive: 22.4 µM [inhibitor, single point]"
CCCN1CCN(C(=O)c2ccc(CS(=O)c3ccc(Br)cc3)o2)CC1 (configuration not stated),inactive: 8.21%,
Cc1sc2ncnc(N3CCC(C(=O)N(CC(C)C)c4nc5ccccc5s4)CC3)c2c1C,,"inconclusive: 5.62 µM [inhibitor, single point]"

Structure (SMILES),"activity, negative = inhibition",Potency
CCOC(=O)C1=C(NC(=S)NC(=O)c2ccccc2)c2ccccc2CC1(C)C,,"inconclusive: 11.2 µM [inhibitor, partial curve, poor fit]"
Cc1ccc(NC(=S)N2CCN(c3ncccn3)CC2)cc1C,,"inconclusive: 35.5 µM [inhibitor, single point]"
O=C(NCCC1=CCCCC1)C1CCN(S(=O)(=O)c2cccc3nsnc23)CC1,,"inconclusive: 35.5 µM [inhibitor, single point]"
COc1cc(Nc2ccccn2)cc(C(=O)Nc2cccc(C(F)(F)F)c2)c1,,"inconclusive: 10 µM [inhibitor, partial curve, poor fit] and inconclusive: 20 µM [inhibitor, single point]"
Brc1c(CSc2nc3ccccc3s2)nc2ncccn12,,"inconclusive: 5.62 µM [inhibitor, single point]"
CCN(CC)C(=O)CSc1nc2ccccc2c(=O)n1CCC(=O)N1CCN(c2ccccc2)CC1,,"inconclusive: 4.47 µM [inhibitor, partial curve, poor fit]"
CCOCCC(=O)Nc1ccc2c(c1)c(=O)n(C)n2-c1ccc2ccccc2c1,,"inconclusive: 3.98 µM [inhibitor, full curve, poor fit]"
Cc1cc(C(F)F)n2nc(C(=O)Nc3ccc(F)c(Cl)c3)nc2n1,,"inconclusive: 25.1 µM [inhibitor, single point]"
CCOc1ccc(Br)cc1CC(=O)O,inactive: 7.81%,
CCCCCCN1C[C@H](n2cc(COC(=O)c3ccccc3)nn2)[C@@H](O)C[C@@H]1c1ccc(Cl)cc1,,"inconclusive: 17.8 µM [inhibitor, single point]"
Cc1ccc(Cl)cc1N1CCN(C(=O)c2ccc(C)c(-n3c(C)nc4cccnc43)c2)CC1,,"inconclusive: 6.31 µM [inhibitor, partial curve]"
Cc1ccc2nc(SCc3ccc([N+](=O)[O-])cc3)[nH]c2c1,inactive: -29%,
O=C(CSc1c2c(nc3cc(Cl)ccc13)CCCC2)NCc1ccco1,,active: 17.8 µM
Nc1ccccc1SC1CC(=O)N(c2ccc(Cl)c(Cl)c2)C1=O (configuration not stated),,"inconclusive: 11.2 µM [inhibitor, partial curve]"
O=C(N/N=C/c1ccco1)c1cc(Br)ccc1OCc1ccccc1,inactive: -11.7%,
COc1cccc(NC(=S)N(CCN(C)C)Cc2cccs2)c1,inactive: 7.92%,
O=S1(=O)CCOC[C@H](c2ccccc2)N1Cc1ccc(Cl)c(Cl)c1,,"inconclusive: 35.5 µM [inhibitor, single point]"
O=C(CSc1ccc2ccccc2c1)Nc1ccc(S(=O)(=O)Nc2nccs2)cc1,,"inconclusive: 35.5 µM [inhibitor, single point]"
COc1ccc(CNC(=O)Cn2c(=O)oc3cc(S(=O)(=O)N4CCCC4)ccc32)cc1,inactive: 6.87%,
Cc1ccccc1N=C1SC(CC(=O)Nc2ccc3ccccc3c2)C(=O)N1Cc1ccccn1 (configuration not stated),,"inconclusive: 15.8 µM [inhibitor, single point]"
COC(=O)C1=C(C)N(Cc2ccccc2)C(=NCC2CC2)N[C@H]1c1ccccc1,,"inconclusive: 35.5 µM [inhibitor, single point]"
